Measured values taken from PubChem BioAssay AID686992 (Broad Institute, 2013).
Hit rate of the full screen: of about 260,000 compounds, about 960 (0.37%) were called active. The inconclusive results got no clear call from the source; some entries with a clear call stand among them for comparison.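 How the source made its calls: active means mean E-selectin-positive cell signal at least 10% of the positive control, reached in at least 60% of replicates, without over 20% cell loss; inconclusive means no rule given, readout overlaps actives, possibly toxicity-flagged; inactive means the rest, including those meeting only one limit.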

Each compound was assayed against E-selectin (Homo sapiens) (UniProt P16581) (assay: inducers of endothelial E-selectin expression – imaging, HUVEC, immunofluorescence imaging, single point, primary screen (AID 686992;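 further: signal is the percent of cells scored E-selectin positive by PE staining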)). Conditions: at 7.58 µM, active compounds read high, normalized: neutral wells 0, TNF-alpha wells 100.
Chain of UniProt P16581 (P16581 whole entry, looked up): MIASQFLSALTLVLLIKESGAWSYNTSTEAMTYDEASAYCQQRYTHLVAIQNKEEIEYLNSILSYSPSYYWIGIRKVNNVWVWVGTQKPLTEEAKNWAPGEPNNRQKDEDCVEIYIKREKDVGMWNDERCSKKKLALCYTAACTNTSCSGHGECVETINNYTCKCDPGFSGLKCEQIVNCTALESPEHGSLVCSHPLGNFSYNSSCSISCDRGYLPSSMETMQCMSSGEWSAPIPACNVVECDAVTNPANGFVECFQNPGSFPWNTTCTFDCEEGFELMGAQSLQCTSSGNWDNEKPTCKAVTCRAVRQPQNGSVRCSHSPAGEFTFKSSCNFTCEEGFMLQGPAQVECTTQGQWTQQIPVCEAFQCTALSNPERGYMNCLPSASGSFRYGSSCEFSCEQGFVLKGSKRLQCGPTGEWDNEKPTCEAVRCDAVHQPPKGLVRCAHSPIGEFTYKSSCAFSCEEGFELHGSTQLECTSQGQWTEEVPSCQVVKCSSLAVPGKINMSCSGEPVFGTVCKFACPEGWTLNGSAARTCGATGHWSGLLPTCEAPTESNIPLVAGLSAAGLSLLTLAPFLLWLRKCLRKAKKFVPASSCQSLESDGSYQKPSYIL
In short: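 Test system: HUVEC | Signal: Immunofluorescence imaging | Read-out: Percent E-selectin-positive cells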

| SMILES | activation |
| --- | --- |
| COc1ccc(S(=O)(=O)N(C)C[C@H]2Oc3ccc(NC(=O)Nc4cccc5ccccc45)cc3CC(=O)N([C@H](C)CO)C[C@@H]2C)cc1 | inconclusive: 0.394% |
| C[C@@H]1CN([C@H](C)CO)C(=O)c2cc(C#CCN(C)C)cnc2O[C@@H]1CN(C)C(=O)c1ccc(F)cc1 | inactive: -0.13% |
| C[C@@H]1CN([C@H](C)CO)C(=O)c2cc(NS(=O)(=O)c3cn(C)cn3)ccc2O[C@H]1CN(C)Cc1ccncc1 | active: 92.4% |
| Cc1ccccc1C(=O)N1CCC(C(=O)Nc2sccc2C(N)=O)CC1 | inconclusive: 41.4% |
| COc1ccc(CCn2c(=O)c3cccnc3n(Cc3cccc([N+](=O)[O-])c3)c2=O)cc1OC | active: 26.8% |
| COc1ccc(Nc2ccccc2N)cc1 | active: 37.4% |
| COc1ccc(-c2nnc(NC(=O)c3cc(Cl)ccc3Cl)o2)cc1 | inconclusive: 82.9% |
| CN1C(=O)c2cc(NC(=O)Nc3ccccc3)ccc2OC[C@H]2O[C@@H](CC(=O)O)CC[C@H]21 | inactive: -0.167% |
| CCCCN(C(=O)c1cccc(S(=O)(=O)N2CCN(C)CC2)c1)c1c(N)n(CCCC)c(=O)[nH]c1=O | inconclusive: 40.4% |
| CC(C)C#Cc1cnc2c(c1)C(=O)N([C@@H](C)CO)C[C@@H](C)[C@@H](CN(C)C(=O)c1ccc3c(c1)OCO3)O2 | inactive: -0.167% |
| Cc1noc(C)c1S(=O)(=O)N(C)C[C@H]1Oc2ccc(NS(=O)(=O)c3cccs3)cc2C(=O)N([C@@H](C)CO)C[C@H]1C | inactive: -0.451% |
| CCOC(=O)[C@@H]1[C@H]2COc3ccc(Br)cc3[C@@H]2N2C(=O)N(c3ccc(C)cc3)C(=O)[C@@]12C | inconclusive: 37.6% |
| CCN1/C(=C/c2ccc3cc(C)ccc3[n+]2C)Sc2ccc3sccc3c21 | inconclusive: 28.4% |
| Cc1cc(/C=C2\SC(=O)NC2=O)c(C)n1-c1ccc(N(C)C)cc1 | inactive: -0.845% |
| COc1ccccc1/C=N\NC(=O)c1ccc(COc2ccc(C)c(C)c2)o1 | active: 48.1% |
| COCC#Cc1ccc2c(c1)O[C@@H](CN(C)S(=O)(=O)c1ccc(OC)cc1)[C@H](C)CN([C@H](C)CO)S2(=O)=O | inactive: -0.161% |
| CC(OC(=O)c1cccc(S(=O)(=O)N2CCCCC2)c1)C(=O)NC1CCCCC1C (centres undefined) | inconclusive: 55.3% |
| CCCCCC(=O)N1C[C@H](n2cc(C3CC3)nn2)[C@@H](O)C[C@@H]1c1ccc(C)cc1 | inconclusive: 96.2% |
| CO[C@@H](CN(C)C(=O)c1cnccn1)[C@@H](C)CN([C@@H](C)CO)S(=O)(=O)c1ccc(C)cc1 | inactive: -0.0175% |
| COc1ccc(OC)c(CN2C(=O)c3ccccc3C2c2nnnn2C2CCCC2)c1 (centres undefined) | inconclusive: 52.6% |
| COCC(C)N=C1NN=C(c2c[nH]c3ccccc23)CS1 (centres undefined) | inconclusive: 58% |
| COc1ccc(Cl)cc1NS(=O)(=O)c1c(C)nc2sccn2c1=O | inconclusive: 61.5% |

| SMILES | activation |
| --- | --- |
| Cc1c(C(=O)N(C)c2ccccc2)oc2c1C(O)CC(C)(C)C2 (centres undefined) | inconclusive: 28.4% |
| Cc1ccc(S(=O)(=O)N(C)C[C@H]2Oc3c(NS(=O)(=O)c4ccc(Cl)cc4)cccc3C(=O)N([C@H](C)CO)C[C@H]2C)cc1 | inconclusive: 27.3% |
| COc1ccccc1-n1c(SCC(=O)O)nc2c(sc(=S)n2-c2ccc(C)c(C)c2)c1=O | inconclusive: 34.6% |
| CN(C)S(=O)(=O)N1CCC(n2nccc2NC(=O)CCCc2ccccc2)CC1 | inconclusive: 27.3% |
| COc1ccc(CN(C)C[C@H]2OCCCC[C@H](C)Oc3ccc(NC(=O)Nc4ccc5c(c4)OCO5)cc3C(=O)N([C@H](C)CO)C[C@@H]2C)cc1 | inconclusive: 38.9% |
| C[C@@H]1CN([C@@H](C)CO)C(=O)Cc2cc(NS(=O)(=O)c3cccs3)ccc2O[C@H]1CN(C)C(=O)Nc1ccc(F)cc1 | active: 30.3% |
| C[C@@H]1CN([C@@H](C)CO)C(=O)c2cccc(NC(=O)c3ccc(-c4nccs4)cc3)c2O[C@H]1CN(C)C(=O)Nc1ccc(C(F)(F)F)cc1 | inactive: -0.215% |
| C[C@H](CO)N1C[C@H](C)[C@H](CN(C)Cc2ccc(C(F)(F)F)cc2)Oc2ccc(N(C)C)cc2CC1=O | inconclusive: 167% |
| COc1ccc(-c2cc(=O)oc3cc(OCC(=O)Nc4ccc(CCO)cc4)ccc23)cc1 | inconclusive: 44.8% |
| COc1ccccc1-n1c(CNC(=O)c2ccccc2)nnc1SCC(=O)Nc1nnc(C)s1 | inconclusive: 28.7% |
| COc1ccc(CCNC(=O)CCNC(=O)c2ccc(Cl)cc2)cc1OC | inactive: 10.5% |
| C[C@H]1CCCCO[C@@H](CN(C)S(=O)(=O)c2cccs2)[C@@H](C)CN([C@@H](C)CO)C(=O)c2cc(N(C)C)ccc2O1 | inactive: 0.205% |
| CCC1(c2ccccc2)NC(=O)N(CC(=O)N2CCc3ccccc32)C1=O (centres undefined) | inconclusive: 84.6% |
| COc1cccc2c1C(=O)c1c(O)c3c(c(O)c1C2=O)C[C@](O)(C(C)=O)C[C@H]3O[C@@H]1C[C@@H](N)[C@@H](O)[C@@H](C)O1 | active: 146% |
| COc1cccc(NC(=O)CSc2nnc3cc(C)nc(N)n23)c1 | inconclusive: 57.5% |
| Cc1cccc(C(=O)NCC(c2ccco2)N2CCc3ccccc32)c1 (centres undefined) | inconclusive: 26.4% |
| COc1ccc(C(OCC(O)CNCCc2ccccc2)c2ccc(OC)cc2)cc1 (centres undefined) | inconclusive: 43.9% |
| COc1ccc(S(=O)(=O)N(C)C[C@H]2Oc3ccc(NS(=O)(=O)c4c(C)noc4C)cc3C(=O)N([C@@H](C)CO)C[C@H]2C)cc1 | active: 404% |
| O=C(Cn1c(=O)oc2cc(S(=O)(=O)N3CCCC3)ccc21)N1CCN(c2ccccc2F)CC1 | inconclusive: 30.5% |
| O=C1c2ccccc2C(c2nnnn2-c2ccc3c(c2)OCCO3)N1Cc1ccc2c(c1)OCO2 (centres undefined) | inconclusive: 144% |
| Cc1cc(-c2ccccc2)nc(N/N=C/c2ccccc2F)n1 | inconclusive: 52.9% |
| Cn1cc(-c2cnc3c(NC=O)cc(-c4cccc(C(F)(F)F)c4)cn23)cn1 | inactive: -0.259% |
